Experimental data published in the supplement of paper PMC3334620.
The full ranking holds about 33,000 sequences; the median of “E-score (-0.5 to 0.5)” is about -0.017, and the highest 2% start at about 0.3. The list shows a part of the results.

These sequences were tested against T1, Sut1 (UniProt P53032) (assay: PBM E-score (8-mer binding enrichment) (E-score (-0.5 to 0.5)); higher = stronger / more preferred TF binding; most listed sequences are background and not binding sites). Conditions: protein concentration: 200 nM; construct: GST-full length.
T1 sequence: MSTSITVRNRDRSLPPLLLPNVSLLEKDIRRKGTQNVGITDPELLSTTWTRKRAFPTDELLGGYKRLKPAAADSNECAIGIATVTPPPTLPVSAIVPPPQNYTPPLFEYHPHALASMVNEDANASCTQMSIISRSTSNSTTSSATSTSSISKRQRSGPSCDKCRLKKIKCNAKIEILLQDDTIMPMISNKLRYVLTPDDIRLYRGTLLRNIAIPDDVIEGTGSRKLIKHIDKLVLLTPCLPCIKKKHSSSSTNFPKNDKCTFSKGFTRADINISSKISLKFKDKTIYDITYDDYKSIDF
Method: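 Universal 'all 10-mer' protein binding microarrays (Agilent AMADID 015681) probed with GST-tagged S. cerevisiae TFs (full-length or DBD) made by in vitro transcription/translation (PURExpress), about 100-200 nM. Bound TF was detected with fluorescent anti-GST. Each ungapped 8-mer (which stands for itself and its reverse complement) is scored by the PBM enrichment score (E-score), a modified Wilcoxon-Mann-Whitney statistic from -0.5 to +0.5, computed with the Universal PBM Analysis Suite. Scale: above 0.35 generally sequence-specific binding.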

| Sequence | PBM E-score |
| --- | --- |
| ACACCTAT | -0.111 |
| GTATAAAA | 0.317 |
| GCCTCTCA | -0.216 |
| CATCCCGA | 0.137 |
| GGCTGGGA | -0.153 |
| GGTTTCAC | 0.13 |
| GTAACTTA | 0.134 |
| CCCAGGCA | -0.237 |
| AACGGCCG | 0.101 |
| AACCTCTC | -0.13 |
| AGACGTAC | -0.163 |
| CCGTGAGG | -0.236 |
| CGATACTC | -0.0472 |
| GACCTTCC | 0.0118 |
| GTATGTAA | 0.174 |
| GACCGGTC | 0.0546 |
| ACACGGAC | 0.278 |
| CACAATTA | 0.131 |
| CCCGTAAA | 0.00847 |
| CATATTAG | 0.0699 |
| AGGCTCCA | -0.178 |
| ACATGGGA | -0.0411 |

| Sequence | PBM E-score |
| --- | --- |
| GGCTTGTA | -0.16 |
| GCGGCCAA | -0.066 |
| ATTCCTGG | -0.175 |
| GAAGGGGA | -0.322 |
| ATTACTAG | 0.0299 |
| ATCGGGAA | 0.0926 |
| CGTAGTTA | 0.17 |
| CCGATCAG | 0.0279 |
| TACCCAGA | 0.0156 |
| CACGCGTG | 0.0395 |
| ACGTTAAT | 0.146 |
| CACCGAAC | -0.0118 |
| AACCGTAC | -0.0756 |
| CCCCGTTC | 0.0147 |
| GTAATCAC | -0.13 |
| AGCGCACA | -0.0617 |
| GATAAGCC | -0.115 |
| ACCCACCG | -0.0418 |
| CCGCTCCA | -0.192 |
| ATTCCACC | 0.0638 |
| AAGGGAAT | -0.146 |
| ACTGACAC | 0.069 |

| Sequence | PBM E-score |
| --- | --- |
| GAGCCGAA | -0.0551 |
| AGGCGTGA | -0.209 |
| CAAGGCAG | -0.168 |
| CCTCAAGG | -0.176 |
| TGGCGTAA | -0.113 |
| AAAGAGGC | 0.0186 |
| CGATCCAC | -0.146 |
| ATGCAGGC | -0.173 |
| CGTAATAA | 0.0956 |
| TTCCACAA | 0.168 |
| TACAGCCA | -0.098 |
| CGTATCGC | -0.104 |
| CGCACTAA | 0.0754 |
| ACGAGGAC | -0.0726 |
| ATCGAAGA | 0.156 |
| CTCCTCTC | -0.171 |
| GCCCCCAC | -0.255 |
| CTGAACGA | -0.256 |
| CACGCCTG | -0.334 |
| AAGTACCG | 0.141 |
| CGCATTGC | -0.174 |
| ATGCCGTA | 0.0177 |

| Sequence | PBM E-score |
| --- | --- |
| CGGATCAC | 0.19 |
| GCCTTACA | -0.0669 |
| CCACCGTC | -0.154 |
| TATGCTAA | 0.0693 |
| AGTAAGCG | -0.00838 |
| AAGTTCTC | 0.211 |
| TATACGGA | 0.312 |
| CCCTTTAA | 0.0269 |
| AGACAGCC | -0.123 |
| AAGTTTGT | 0.202 |
| CCATCCGC | -0.157 |
| CACACACC | -0.0548 |
| CTCCGGCC | 0.376 |
| CTCTCTCA | -0.134 |
| CATCTCAC | -0.142 |
| GTCACATA | 0.15 |
| AACCGATC | 0.00599 |
| AGCACCAA | 0.17 |
| ACATCGTG | -0.184 |
| AAGGATTG | 0.0777 |
